The supplement of paper PMC3334620
Over roughly 33,000 sequences, “E-score (-0.5 to 0.5)” has its median near -0.032; the highest 2% begin near 0.36. The list shows a part of the results.

What follows are sequences tested against T1, Sko1 (UniProt Q02100) (assay: PBM E-score (8-mer binding enrichment) (E-score (-0.5 to 0.5)); higher = stronger / more preferred TF binding; most listed sequences are background and not binding sites). Settings: protein concentration: 200 nM; construct: GST-full length.
T1 sequence: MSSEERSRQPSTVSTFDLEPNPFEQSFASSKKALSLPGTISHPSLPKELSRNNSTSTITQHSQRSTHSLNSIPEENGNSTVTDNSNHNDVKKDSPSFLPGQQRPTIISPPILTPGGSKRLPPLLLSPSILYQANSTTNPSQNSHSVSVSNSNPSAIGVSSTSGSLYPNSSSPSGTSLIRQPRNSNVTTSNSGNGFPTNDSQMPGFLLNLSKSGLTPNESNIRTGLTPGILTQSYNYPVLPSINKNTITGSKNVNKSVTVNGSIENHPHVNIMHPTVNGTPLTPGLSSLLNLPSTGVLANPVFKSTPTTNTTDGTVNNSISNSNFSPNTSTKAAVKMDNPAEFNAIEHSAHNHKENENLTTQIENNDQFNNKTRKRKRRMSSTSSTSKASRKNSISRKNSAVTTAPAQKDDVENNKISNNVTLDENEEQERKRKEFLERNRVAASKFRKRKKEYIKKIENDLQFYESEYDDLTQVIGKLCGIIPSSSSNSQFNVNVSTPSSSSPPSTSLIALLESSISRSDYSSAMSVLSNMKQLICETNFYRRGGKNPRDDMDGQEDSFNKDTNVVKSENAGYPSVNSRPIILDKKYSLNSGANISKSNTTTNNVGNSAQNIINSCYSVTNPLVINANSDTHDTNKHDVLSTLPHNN
Summary of the method: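 Yeast transcription factors, full-length or as DNA-binding domains, were expressed with a GST tag using PURExpress in vitro transcription/translation. At about 100-200 nM they were applied to universal all-10-mer Agilent arrays, double-stranded by primer extension on fresh or once-stripped slides. Fluorescent anti-GST detected bound protein, and masliner normalised the scans. E-scores for ungapped eight-base words, pooled with reverse complements, came from the Universal PBM Analysis Suite.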

| Sequence | PBM E-score |
| --- | --- |
| AAAGACTA | 0.026 |
| CGTCCTAG | 0.102 |
| CAGCTATC | -0.272 |
| CCCCATCA | -0.0157 |
| ATCTAATA | 0.248 |
| CGTAGATC | 0.3 |
| ACTAGACA | 0.119 |
| AGAGGATA | -0.0582 |
| ACGTTCCG | 0.0867 |
| CCTGCCAG | -0.251 |
| GTTCCGGA | -0.284 |
| AGTGGTAC | 0.0946 |
| ATGATCCG | -0.017 |
| ATGCAGCG | -0.168 |
| AAAACGAC | 0.113 |
| AGAATAGG | -0.0397 |
| GCTGTGCA | -0.273 |
| CCCCCCGC | -0.414 |
| GGCAGGCC | -0.345 |
| GGCCAGCA | -0.328 |
| CAAAGGTG | -0.113 |
| GGAGACAA | -0.112 |

| Sequence | PBM E-score |
| --- | --- |
| CCATCAGC | -0.0853 |
| CCCAATCC | -0.111 |
| AATCCTAT | 0.164 |
| CCAGGTTC | -0.285 |
| GCGACCCA | -0.283 |
| CTTTCCTC | -0.169 |
| CCCACAAC | -0.0731 |
| CGGTGGGA | -0.24 |
| CACTCGCA | -0.0873 |
| AAAACTCT | -0.0843 |
| ATAGGCCA | -0.24 |
| AGCGTGCA | -0.0757 |
| ATTCACTG | 0.0188 |
| CTAATGGC | -0.00306 |
| GATACTGC | -0.0769 |
| CACCGGGG | -0.342 |
| AGACGTCC | 0.281 |
| ATCTGAAA | 0.128 |
| CCCTGTAG | -0.306 |
| ACAAACCG | -0.0685 |
| GACAAGTA | -0.00194 |
| CGCTCGAA | 0.112 |

| Sequence | PBM E-score |
| --- | --- |
| AGGTCCTG | -0.272 |
| AAACCACA | 0.118 |
| AGAGCTTC | -0.17 |
| ACGAAACG | 0.281 |
| TAGATAAA | 0.0662 |
| CACTCAAC | 0.0667 |
| GGTGGATA | -0.0862 |
| GACTAACC | -0.0958 |
| GCTGCTTA | -0.182 |
| ACATAGTG | 0.12 |
| CCGTTTTA | -0.00533 |
| CCAATTGG | 0.0158 |
| CAACCCCC | -0.273 |
| CGGCCCGA | -0.303 |
| CAAGTCCA | -0.235 |
| CGAATAAG | 0.0312 |
| CAACACGA | 0.102 |
| AACGCAAG | 0.0717 |
| GTATCGTA | 0.238 |
| ACCACGCC | -0.125 |
| GCCTACGA | 0.0583 |
| TCGACCGA | -0.21 |

| Sequence | PBM E-score |
| --- | --- |
| AAGCAAGA | 0.0771 |
| ACCATTGA | 0.0435 |
| CTTATAGA | 0.0676 |
| TAAGTCAA | 0.143 |
| GACAATCC | -0.0455 |
| ACCGGGCG | -0.393 |
| CAATTGGA | -0.191 |
| ATGGTTTC | 0.108 |
| ATGCTAGC | 0.153 |
| AGTACTGA | 0.109 |
| CAGACCGC | -0.156 |
| ACTATCAG | -0.0859 |
| AATCAGTC | 0.0904 |
| CACATTCA | -0.0156 |
| AGATCTCG | -0.0715 |
| CCAAAAAC | 0.075 |
| GAGTCGGA | -0.0478 |
| GGTGCAAC | -0.161 |
| AGCTCGCG | 0.0911 |
| ACGCCGAG | -0.0268 |
